Source: PubChem BioAssay AID485344 (National Center for Advancing Translational Sciences (NCATS), 2010)
Where “and” joins values, the source holds several entries; their conditions need not be identical. Equal values may be shown once. Screen size: about 340,000 compounds; about 6,900 (2%) were called active. Cut-off read from the data, not from the text of the source: active = inhibition above about 30%; inactive = below that, where a call was filed. This is a selection; strong and weak results do not stand in their true shares. The source gives no active or inactive call for entries shown without one.

Target: D(2) dopamine receptor (Homo sapiens) (UniProt P14416)
Assay: HTS Assay for Allosteric Antagonists of the Human D2 Dopamine Receptor: Primary Screen for Antagonists; note: 0% is about no effect
Conditions: HEK293 TREx D2 cells, calcium flux, dopamine EC80; at 10 µM; stronger effect = higher value
How it was run: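 Calcium flux kinetic readout in an inducible HEK293 TREx D2 line plated overnight at 30 C. After 180 s compound exposure, an EC80 dopamine challenge follows with another 180 s kinetic read to detect antagonism.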

UniProt P14416, sequence (P14416 whole entry, looked up): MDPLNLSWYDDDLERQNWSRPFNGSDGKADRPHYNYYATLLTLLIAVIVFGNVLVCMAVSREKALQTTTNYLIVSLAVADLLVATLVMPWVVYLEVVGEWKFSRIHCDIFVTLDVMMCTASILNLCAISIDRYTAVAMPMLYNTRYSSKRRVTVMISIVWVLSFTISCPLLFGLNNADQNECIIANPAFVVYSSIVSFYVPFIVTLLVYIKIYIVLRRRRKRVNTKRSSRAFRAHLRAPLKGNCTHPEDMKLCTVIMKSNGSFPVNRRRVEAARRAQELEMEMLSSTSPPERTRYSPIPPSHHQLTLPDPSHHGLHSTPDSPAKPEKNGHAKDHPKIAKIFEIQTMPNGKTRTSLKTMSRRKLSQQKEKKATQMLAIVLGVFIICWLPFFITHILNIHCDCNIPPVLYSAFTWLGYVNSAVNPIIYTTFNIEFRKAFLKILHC

Row | Structure (SMILES) | inhibition
1 | O=C1CSC2(C(=O)N(Cc3ccccc3F)c3ccccc32)N1c1cccc(C(F)(F)F)c1 (configuration not stated) | -4.13%
2 | CN(C)CCNC(=O)C1CCN(c2ncnc3c2nc2n3CCCCC2)CC1 | 13.6%
3 | CCOc1ccccc1CNC(=O)CCc1c(C)nn(-c2ccc(N3CCCCC3)nn2)c1C | -6.05%
4 | CC(NC(=O)C1CCN(S(=O)(=O)c2ccc(F)cc2)CC1)c1ccccc1 (configuration not stated) | -5.83%
5 | CN1CCC(=C2c3ccccc3CCc3sccc32)CC1 | active: 86.2%
6 | Cn1c(CS(=O)Cc2c(Cl)cccc2Cl)nnc1SCc1ccc(Cl)cc1 (configuration not stated) | active: 31%
7 | COc1cccc(C(=O)Nc2nc3ccc(S(=O)(=O)N4CCCC4)cc3s2)c1 | 5.11%
8 | COc1ccc(Nc2ncc3c(n2)CC(c2ccc(C)cc2)CC3=O)cc1 (configuration not stated) | active: 36.4%
9 | O=C(Nc1ccc(Br)cc1)c1cc(-c2cccs2)nc2ccccc12 | -21.7%
10 | CC1CCC(N2CC(=O)N(C3CCCCC3)C(c3ccc(Cl)cc3)C2=O)CC1 (configuration not stated) | -26.4%
11 | Cc1ccc2oc(C(=O)N(Cc3ccc(N(C)C)cc3)CC3CCCO3)c(C)c2c1 (configuration not stated) | 11.9%
12 | CCOC(=O)c1c(NC(=O)CSc2cn(CCNC(=O)c3cccc(C(F)(F)F)c3)c3ccccc23)sc2c1CCC2 | 3.64%
13 | CCOc1ccc(NC(=O)c2sc3nc4c(c(-c5ccccc5)c3c2N)C(=O)CC(C)(C)C4)cc1 | -3.39%
14 | CCOc1cc(C2C(C(=O)OC)=C(C)NC3=C2C(=O)c2ccccc23)ccc1OC (configuration not stated) | -24.1%
15 | Cc1ccc(S(=O)(=O)c2cnc(SCC(=O)Nc3ccc4c(c3)OCCO4)[nH]c2=O)cc1Cl | -20.2%
16 | Cc1ccccc1NC(=O)c1cn(-c2ccccc2)nc1-c1ccccc1 | -12%
17 | Cc1ccccc1-c1ccnc2[nH]n(-c3ccccc3)c(=O)c12 | -16.4%
18 | COc1cccc(CNc2ncnc3onc(C)c23)c1 | -2.77%
19 | O=C(Cn1c(=O)n(Cc2ccco2)c(=O)c2oc3ccccc3c21)Nc1ccc(F)c(Cl)c1 | -11.5%
20 | COc1ccc(N(CC(=O)N2CCc3ccccc3C2)S(=O)(=O)c2ccc(C)cc2)cc1Cl | 18.5%
21 | CN1CCN(CCCNC(=O)c2cnn(-c3ccc(F)cc3)c2-n2cccc2)CC1 | -7.7%
22 | c1ccc(-c2cc3ncc4c(n3n2)-c2ccccc2OC4)cc1 | 13.7%
23 | CNc1ccc(-c2nc(-c3ccccc3C)no2)cc1[N+](=O)[O-] | 1.91%
24 | O=C(Nc1c(C(=O)N2CCN(c3ccccc3F)CC2)oc2ccccc12)c1ccco1 | -2.28%
25 | CSc1nc(-c2ccccc2Cl)nc2c1Cc1c(CO)cnc(C)c1O2 | 3.94%

Row | Structure (SMILES) | inhibition
26 | COc1ccc(CNC(=O)Cn2c(=O)c3cccn3c3ccccc32)cc1 | 21%
27 | COc1ccccc1C(CNC(=O)c1ccco1)N1CCCC1 (configuration not stated) | active: 37.3%
28 | CCc1nnc2c(N3CCN(c4cccc(C(F)(F)F)c4)CC3)nc3ccccc3n12 | 11.9%
29 | CCCCC1=CC2=CC(=O)C(C)(OC(=O)CC)C(=O)C2=CN1Cc1ccc(OC)cc1 (configuration not stated) | active: 30.9%
30 | N#CC1=C2SCN(C3CCCCC3)CN2C(=O)CC1c1ccc(Br)cc1 (configuration not stated) | -12.1%
31 | CCOc1cc(C#N)c(NC(=O)c2ccc(OC)c(S(=O)(=O)N3CCN(c4ccccc4)CC3)c2)cc1OCC | 13.9%
32 | CCCOc1ccc(CNC(=O)c2oc3ccc4c(c3c2C)C(=O)CC(C)(CC)O4)cc1 (configuration not stated) | 6.92%
33 | CCOC(=O)c1ccc(NC(=O)c2cn(-c3ccccc3)nc2-c2ccc(C)cc2)cc1 | -1.64%
34 | CCCc1ccc(S(=O)(=O)N2CCC(c3nnnn3-c3ccc(OC)cc3)CC2)cc1 | -1.83%
35 | CN(C)CCNC(=O)c1cccc(NS(=O)(=O)c2ccc(Cl)c(Cl)c2)c1 | active: 34.8%
36 | Cc1oc2cc3oc(=O)c(CC(=O)N4CCCCC4)c(C)c3cc2c1C | 7.75%
37 | CC1=C(C(=O)Nc2ccccc2)C(c2ccc(C)cc2)n2nc(SCc3ccccc3C)nc2N1 (configuration not stated) | -13.4%
38 | CC(C)OC(=O)CSc1nnc2c3ccccc3n(C)c2n1 | active: 37.2%
39 | CCCOc1ccc(C(=O)Nc2nonc2-c2ccc(OCC)cc2)cc1 | -4.11%
40 | COc1ccc(CNC(=O)C2=C(C)C(=O)OC23CCCCC3)cc1OC | 8.17%
41 | O=C(c1ccc(F)cc1F)N1CCC(c2nc(-c3ccc(S(=O)(=O)N4CCCC4)cc3)no2)CC1 | 5.12%
42 | Cc1cc(C)cc(NC(=O)CSc2nc3c([nH]c4ccccc43)c(=O)n2-c2ccc(F)cc2)c1 | -4.95%
43 | CCOc1ccc(-c2cc(NC(=O)c3cccc(Cl)c3)c(C(=O)OC)s2)cc1 | 11.3%
44 | O=C(Nc1ccc(C(=O)N2CCCCC2)cc1)c1nsc2ccccc12 | -2.58%
45 | COc1cc(Cl)c(C)cc1NC(=O)CCc1c(C)nc2c3cccnc3nn2c1C | -1.67%
46 | CS(=O)(=O)c1ccccc1-c1nnc(NC(=O)c2ccc3c(c2)OCCO3)o1 | -6.29%
47 | COc1ccc(CNC(=O)CSc2n[nH]c(-c3ccc(F)cc3)n2)cc1 | -21.8%
48 | O=C(Nc1nc2n(n1)C(c1ccccc1)C=C(c1ccccc1)N2)c1ccccc1 (configuration not stated) | -19.7%
49 | COc1ccc(NC(=O)c2nnn(CC(=O)Nc3c(C)cc(C)cc3C)c2N)cc1OC | 3.52%
50 | Cc1ccc(C)c(CN2C(=O)c3ccccc3S(=O)(=O)c3ccc(C(=O)Nc4cc(F)ccc4F)cc32)c1 | -1.13%

Row | Structure (SMILES) | inhibition
51 | COc1ccc(CNC(=O)C(CCSC)NS(=O)(=O)c2ccc3c(c2)oc(=O)n3C)cc1 (configuration not stated) | 6.82%
52 | COc1ccc(CNC(=O)CN(c2ccc(C)cc2)S(=O)(=O)c2c(C)noc2C)cc1 | 18.3%
53 | Cc1ccc(OCCCCn2cnc3ccccc32)cc1 | 3.85%
54 | CCc1cccc(C)c1NC(=O)c1ccc(CN2CCc3ccccc3C2)cc1 | active: 55.1%
55 | CCCN(CCC)CCNC(=O)CN1C(=O)COc2ccc(S(=O)(=O)N3CCOCC3)cc21 | -9.47%
56 | CCC(CC)C(=O)Nc1nnc(S(=O)(=O)N2CCc3ccccc32)s1 | 12.3%
57 | O=C(NCc1ccccc1Cl)C1CCN(C(=O)N2CCOc3ccccc32)CC1 | -7.59%
58 | Cc1cccc(OCC(=O)NCCc2nc3ccccc3[nH]2)c1C | 11.4%
59 | [O-][N+]1=c2ccc(Nc3ccccc3)cc2=NC12CCCCC2 | active: 32.5%
60 | CCOc1ccc(-n2nc(CO)c(C(=O)NCc3ccccn3)n2)cc1 | -2.39%
61 | CCCOc1ccc(C(=O)NC2CCSc3ccccc32)cc1 (configuration not stated) | active: 36%
62 | Cc1cccnc1NC(=O)c1ccc(Cl)c(S(=O)(=O)N2CCCCCC2)c1 | active: 56.1%
63 | COc1ccc(Cn2c(C)nc3oc4cc(OC)ccc4c(=O)c3c2=O)cc1 | active: 71.7%
64 | COC(=O)c1ccccc1NC(=O)c1cnn(-c2ccc(F)cc2)c1-n1cccc1 | -4.38%
65 | Cc1ccc(CN(C(=O)COc2ccccc2[N+](=O)[O-])c2ccccn2)cc1 | -3.03%
66 | COc1ccc(C(=O)NCCSCc2cccc(Cl)c2)cc1OC | active: 32%
67 | CCOc1ccc(NC(=O)C2CCCN(c3cnccn3)C2)cc1 (configuration not stated) | -12.4%
68 | CCOc1ccc(Cl)cc1CNCCCSc1nnnn1C | -2.82%
69 | COC(=O)CSc1nc2sc3c(c2c(=O)n1-c1ccc(C)cc1)CC(C(C)C)OC3 (configuration not stated) | 6.71%
70 | CCN(CC)S(=O)(=O)c1ccc2c(c1)N(CC(=O)Nc1ccc(OC)cc1)C(=O)CS2 | 7.16%
71 | Cc1ccccc1CNC(=O)c1oc2c(c1C)-c1nn(Cc3ccc(Cl)cc3)cc1CC2 | 4.13%
72 | Cc1ccc(C(=O)NCC(=O)OCc2cc(=O)n3ccsc3n2)cc1 | -15.6%
73 | COc1cc(F)ccc1CN1CCC(C(=O)Nc2ccc(Oc3ccccc3)nc2)CC1 | active: 39.6%
74 | CCc1ccc(NC(=O)CSc2ccc3nc(-c4ccc(OC)cc4)cn3n2)cc1 | 0.248%
75 | CC(C)Cn1c(C2CC(=O)N(c3ccccc3Cl)C2)nc2ccccc21 (configuration not stated) | 0.315%

Row | Structure (SMILES) | inhibition
76 | O=C(Cn1nc(-c2ccccc2)nc(Cc2ccccc2)c1=O)Nc1ccc(Cl)cc1 | -17.7%
77 | Cc1oc(-c2ccc(C(=O)NCCN(C)C)cc2)nc1CS(=O)(=O)c1ccccc1 | 8.72%
78 | Cc1cccc(NC(=O)Cn2nnc(C(=O)NCc3ccco3)c2N)c1 | 12.5% and active: 34.4%
79 | COc1ccc(Br)cc1C(=O)Nc1ccc(-c2nc3ncccc3o2)cc1C | -3.2%
80 | Cc1cccc(-n2c(N)cc(=O)nc2SCC(=O)Nc2ccc(F)cc2)c1C | -4.83%
81 | COc1ccc(Br)cc1/C(C)=N/NC1=NCCN1 | active: 32.6%
82 | O=C(Nc1ccc(Cl)cc1Cl)c1cc(S(=O)(=O)N2CCCCCC2)ccc1F | -1.65%
83 | Cc1cc(C)cc(C(=O)n2nc(C)c(S(=O)(=O)N3CCCCCC3)c2C)c1 | -25.2%
84 | CCCCS(=O)(=O)c1oc(-c2cccs2)nc1S(=O)(=O)c1ccc(F)cc1 | -1.67%
85 | Cc1c(C(=O)N2CCN(c3ccc(F)cc3)CC2)sc2nc3n(c(=O)c12)CCC3 | -8.81%
86 | O=C1CC(c2cc(F)cc(F)c2)c2cc3c(cc2N1)OCO3 (configuration not stated) | -3.32%
87 | O=C(Cn1ccn(-c2ccc(F)cc2)c(=O)c1=O)Nc1ccccc1C(F)(F)F | 7.36%
88 | Cc1ccc(CNCCCSc2nc(C)cc(C)n2)cc1 | active: 63.4%
89 | CCCOc1ccc(NC(=O)CC2C(=O)N(c3ccc(C)cc3)C(=O)N2CCc2ccncc2)cc1 (configuration not stated) | 6.7%
90 | O=c1c(NCc2ccccc2Cl)nccn1-c1ccccc1 | 4.15%
91 | Cc1c(NC(=O)c2cc(-c3ccccc3O)on2)c(=O)n(-c2ccccc2)n1C | 14.7%
92 | CC(=O)N1CCc2cc(S(=O)(=O)NC(CC(C)C)C(=O)NCc3ccccc3Cl)ccc21 (configuration not stated) | 0.268%
93 | COC(=O)c1sccc1NC(=O)Cc1ccc(Br)cc1 | active: 42.4%
94 | COc1ccc(CNC(=O)CCc2c(C)c3cc4c(C)c(C)oc4cc3oc2=O)cc1 | -6.8%
95 | CCC(=O)N1CCc2cc(Br)cc(S(=O)(=O)N3CCC(C(=O)Nc4ccccc4F)CC3)c21 | 9.62%
96 | CCCCCOc1ccc(Cn2c(=O)oc3ccc(C)cc32)cc1OC | 3.2%
97 | CCOc1ccc(NC(=O)CCNS(=O)(=O)c2ccc3c(c2)CCCC(=O)N3)cc1 | 10.5%
